# Results taken from PubChem BioAssay AID1347073 (National Center for Advancing Translational Sciences (NCATS), 2019).
# Screen size: about 45,000 compounds; about 200 (0.44%) were called active. Another 7% or so got no clear call; they are omitted. Calls come from the whole dose curve; as a rule, active = well fitted activation curve with a large enough effect; inconclusive = small, poorly fitted or top-dose-only effect; inactive = no such curve, though single readings can be large or run the other way. Some of the results follow.
# Assay: qHTS of TDP-43 Inhibitors: NCGC Sytravon Library Screen; note: nearly all actives have a fitted effect of over 55% in size; for growth rescue (activation): 0% is about no effect
# Conditions: yeast TDP-43 toxicity rescue, BacTiter-Glo growth, 24 h; series mostly up to 46.1 µM; growth rescue (activation): at the top concentration
# Summary of the method: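 TDP-43-expressing yeast, pregrown in raffinose, seeded at OD600 0.02 in galactose medium with compound for 24 hr at 30 deg C. Growth read by BacTiter-Glo luminescence, so rescue of toxicity appears as activation.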
# Potency is the fitted concentration of half-maximal effect.
SMILES,growth rescue (activation),Potency
CCOC(=O)c1sc2nc(C)nc(NCCc3ccc(S(N)(=O)=O)cc3)c2c1C,inactive: 1.02%,–
O=C1C(c2cc(=O)c3ccccc3[nH]2)=C(O)c2ccccc21,inactive: -21.4%,–
N/C(=N\c1nc2ccccc2o1)NC(=O)c1ccccc1Br,inactive: 14%,–
CCCc1cc(=O)[nH]c(SCC(=O)Nc2ccc(C(=O)Nc3ccccc3OC)cc2)n1,inactive: 17%,–
Cc1ccc(N(C(=O)c2csnn2)C(C(=O)NC2CCCCC2)c2ccccn2)c(C)c1 (stereo not given),inactive: 13.9%,–
CCc1ccc(C2c3[nH]c4ccccc4c3CCN2C(=O)CN2CCN(CC)CC2)cc1 (stereo not given),inactive: -2.62%,–
O=C(Cn1c(=O)oc2cc(S(=O)(=O)N3CCCC3)ccc21)Nc1cccc(C(F)(F)F)c1,inactive: 9.88%,–
Cc1ccc(S(=O)(=O)N(C)CC(=O)N2CCC(C(N)=O)CC2)cc1,inactive: -14.6%,–
CCc1noc(C)c1C(=O)OCC(=O)c1ccc(NC(C)=O)cc1F,inactive: -20.7%,–
O=C(CN(C(=O)CNC(=O)c1ccco1)c1ccc(F)cc1)NC1CCCCC1,inactive: -1.22%,–
COc1ccc(N(C(=O)Cn2nnc(-c3ccc(C)o3)n2)C(C(=O)NC2CCCC2)c2ccncc2)cc1 (stereo not given),inactive: -18.1%,–
O=C(COc1ccc(S(=O)(=O)N2CCOCC2)cc1Cl)NCc1ccccn1,inactive: 12%,–
CCOC(=O)c1cnc2c(-c3ccccc3)cnn2c1C,inactive: -1.33%,–
O=C(c1cccnc1)N(c1cc2sc(=O)oc2c2ccccc12)S(=O)(=O)c1ccccc1,inactive: 11.2%,–
C[n+]1cccc(C(=O)N/N=C/c2ccc3c(c2)OCO3)c1,inactive: 1.56%,–
Nc1ccc(N2CCOCC2)c(S(=O)(=O)Nc2cc(Cl)ccc2Cl)c1,inactive: 8.85%,–
Cc1ccc(S(=O)(=O)N2CCC(C(=O)NNC(=O)c3ccncc3)CC2)cc1,inactive: 9.02%,–
CSc1ccc(CN2CCN(S(=O)(=O)Cc3ccccc3)CC2)cc1,inactive: 4.67%,–
O=C(COC(=O)c1ccc(Cl)c(S(=O)(=O)N2CCCC2)c1)NCc1ccccc1,inactive: 6.71%,–
Cc1nn(-c2ccc(Cl)cc2)c(=O)c2ccccc12,inactive: 19%,–
COc1cccc(C(=O)OCC(=O)NC23CC4CC(CC(C4)C2)C3)c1,inactive: 38.3%,–
COc1ccc([N+](=O)[O-])cc1N(CC(=O)O)S(C)(=O)=O,inactive: -4.43%,–
C=CCNc1ncnc2c1ncn2[C@H]1CN(CCc2ccccc2)C[C@@H](CO)O1,inactive: 10.7%,–
Cc1csc(-c2cc(C(=O)NCc3cc(C(F)(F)F)cc(C(F)(F)F)c3)n[nH]2)c1,inactive: 7.72%,–
FC(F)(F)c1ccc(N/N=C/c2cccnc2)nc1,inactive: -0.734%,–
Cc1cccc(C)c1C(O)c1ncc(-c2cccc(F)c2)[nH]1 (stereo not given),inactive: 6.21%,–
COc1ccc(OC)c(CN2CCCC(CCC(=O)N(C)CCc3ccccn3)C2)c1 (stereo not given),inactive: -5.57%,–

SMILES,growth rescue (activation),Potency
CC(C)C(=O)N1CCCC1(C)C(=O)NCc1ccc(Cl)cc1 (stereo not given),inactive: 5.71%,–
Cc1ccc(C)c(N(CC(=O)NC2CCCC2)C(=O)CNC(=O)c2cccs2)c1,inactive: -1.41%,–
CCCC1=[N+](CC(=O)c2ccc(C)cc2)CCn2cccc21,inactive: 28.1%,–
COc1ccc(NC(=O)COC(=O)CCc2cc(OC)c(OC)c(OC)c2)c([N+](=O)[O-])c1,inactive: 8.34%,–
COc1ccc(C)cc1NC(=O)COC(=O)C1CCN(C(=O)c2ccc(Cl)cc2)CC1,inactive: 7.69%,–
Cc1ccc(NC(=O)c2ccccc2)cc1-n1cnnn1,inactive: 2.79%,–
O=C(O)CS(=O)(=O)CC(=O)NCc1cccc(C(F)(F)F)c1,inactive: -5.92%,–
COc1ccc([N+](=O)[O-])cc1N(CC(=O)NCCCOC(C)C)S(C)(=O)=O,inactive: -5.31%,–
COc1ccc2[nH]c3c(=O)n(Cc4ccc(C(=O)N5CCCC5)cc4)c(=S)[nH]c3c2c1,inactive: -15%,–
CC(C(=O)O)N1C(=O)/C(=C/C=C/c2ccco2)SC1=S (stereo not given),inactive: 8.16%,–
O=C(O)c1cccc(Cn2cc(Br)cn2)c1,inactive: 17.1%,–
CCCCSc1nc(C)cc(SCC(=O)N/N=C/c2ccccc2)n1,inactive: 13%,–
Cn1cc(CN2CCCC(C(=O)c3nccn3C)C2)c(-c2cccc(Cl)c2)n1 (stereo not given),inactive: -5.73%,–
C/C(CC(=O)Nc1ccc(N(C)C)cc1)=N\NC(=O)C(=O)NCc1ccccc1,inactive: 5.11%,–
O=C(CNC(=O)c1ccco1)N/N=C/c1ccc(C(=O)O)cc1,inactive: 13.4%,–
COc1ccc(N(CC(=O)N2CCN(c3cccc(C)c3)C(C)C2)S(=O)(=O)c2c(C)n[nH]c2C)cc1 (stereo not given),inactive: 9.04%,–
Cc1cc(C)nc(NC(=O)NS(=O)(=O)Nc2ccc(Br)cn2)n1,inactive: 17.2%,–
CC(=O)Nc1ccc(NC(=O)c2cc(-c3cc(F)ccc3OCC3CCCO3)n[nH]2)cc1 (stereo not given),inactive: 12.3%,–
Cc1sc2nc(SCC(=O)Nc3ccccc3F)[nH]c(=O)c2c1C,inactive: -5.77%,–
Cn1c(=O)c(C(=O)NNC(=O)c2ccccc2Cl)c(O)c2ccccc21,inactive: -39.6%,–
CCC1(c2ccccc2)NC(=O)N(CC(=O)N(C)Cc2ccccc2)C1=O (stereo not given),inactive: 5.83%,–
O=C(c1ccc(F)cc1)N1CCC(n2nnc3ccccc32)CC1,inactive: 1.07%,–
O=C(Cc1ccccc1)N/N=C/c1cccn1-c1ccc([N+](=O)[O-])cc1,inactive: 17.8%,–
CCC(CC)c1nnc(NC(=O)C2CCN(C(=O)c3ccco3)CC2)s1,inactive: -5.85%,–
COc1c(Cl)cc(Cl)cc1C(=O)Nc1ccc(CN2CCCCC2)cc1,inactive: 1.5%,–
CN(C(=O)c1ccc2c(c1)CCN2S(C)(=O)=O)c1ccccc1,inactive: 2.26%,–
O=C(CCN1C(=O)/C(=C\c2ccccc2)SC1=S)NNC(=O)c1cccnc1,inactive: 6.11%,–

SMILES,growth rescue (activation),Potency
N/C(Cc1ccc([N+](=O)[O-])cc1)=N\OC(=O)c1ccc2ccccc2c1,–,active: 8.91 µM
CCOC(=O)C1CCN(C(=O)COc2cccc3ccccc23)CC1,inactive: 14.4%,–
Cn1nnc(NC(=S)NC(=O)Cc2ccccc2)n1,inactive: -11.2%,–
O=C(NN1C(=O)C2C3c4ccccc4C(c4ccccc43)C2C1=O)C1CC1 (stereo not given),inactive: 17.4%,–
O=C1C2C3C=CC(C3)C2C(=O)N1/N=C/c1cc(Br)cc([N+](=O)[O-])c1O (stereo not given),inactive: -93.8%,–
Nc1nc(SCC(=O)c2ccc(F)cc2)n[nH]1,inactive: 12.2%,–
O=S(=O)(Nc1cc(Sc2ncn[nH]2)c(O)c2ccccc12)c1ccccc1,inactive: -96%,–
Cc1ccc(/C=N\NC(=O)COc2ccc(C)cc2[N+](=O)[O-])cc1,inactive: 10.4%,–
COCCNc1nc(Oc2ccc(Cl)c(Cl)c2)c2sccc2n1,inactive: 21.9%,–
Cc1ccccc1OCC(=O)Nc1ccccc1NC(=O)c1ccco1,inactive: 14.2%,–
Cc1ccc(-n2cc(CN3CCN(Cc4nccn4C)CC3)c(-c3cccc(C)c3)n2)cc1,inactive: 12.9%,–
CCn1c(C)nc2cc(C(=O)NNC(=O)CCC3CCCC3)ccc21,inactive: 4.43%,–
Cc1ccccc1C(=O)OCC(=O)NCc1ccco1,inactive: -14.3%,–
Brc1ccc(C2=CSC3=NCCN23)cc1,inactive: 4.42%,–
O=S(=O)(c1ccc(NC(=S)N/N=C/c2ccc(O)c(O)c2)cc1)N1CCOCC1,inactive: -5.4%,–
CCCOC(=O)/C=C/c1c(C)[nH]c(=O)[nH]c1=O,inactive: -2.63%,–
COc1ccc(-c2cc(-c3cccnc3)c(C#N)c(N)n2)cc1,inactive: 9.97%,–
CC1=NNC(=O)c2ccccc2O1,inactive: -15.7%,–
N#CC1=C(N)N(c2ncn[nH]2)C2=C(C(=O)CCC2)C1c1ccccc1 (stereo not given),inactive: -4.59%,–
C=CCN1C(=O)C(=O)N(Cc2nc3ccccc3s2)C1=O,inactive: -2.82%,–
Cn1nnnc1Sc1ccc(C(=O)O)cc1[N+](=O)[O-],inactive: 7.93%,–
CCOP(=O)(OCC)C(NC(=O)Nc1c(C)cc(C)cc1C)c1ccccc1 (stereo not given),inactive: 7.19%,–
CC(=O)Nc1cnc(-c2ccccc2C(C)=O)cn1,inactive: 7.42%,–
O=C(N/N=C/c1ccccc1F)c1cccc(NC(=O)c2ccccc2Cl)c1,inactive: 14.1%,–
COc1ccc(CNC(=O)CCC(=O)c2ccc(F)cc2)cc1OC,inactive: 24.9%,–
COc1ccc(NC(=O)c2cccnc2)cc1OCC(C)C,inactive: 7.2%,–
N#CCCN1CCN(C(CNS(=O)(=O)c2ccc(Cl)cc2)c2ccccc2)CC1 (stereo not given),inactive: 6.79%,–

SMILES,growth rescue (activation),Potency
COc1ccccc1Oc1ccc(S(=O)(=O)N2CCCCC2C)cc1 (stereo not given),inactive: -13%,–
CCOc1cc(NC(=O)c2ccco2)c(OCC)cc1NC(=O)c1ccco1,inactive: -14.4%,–
CC(=O)c1sc(NC(=O)c2ccc(COc3ccccc3Cl)o2)nc1C,inactive: -20.2%,–
O=C(COC(=O)c1ccc(S(=O)(=O)N2CCc3ccccc3C2)cc1)NC1CCS(=O)(=O)C1 (stereo not given),inactive: 8.6%,–
COc1cc(C(=O)NC2CCN(CC(=O)Nc3cccc(C)c3C)CC2)cc(OC)c1OC,inactive: 4.46%,–
Cn1cnc2cc(NC(=O)COc3ccccc3)ccc21,inactive: 4.77%,–
COc1cccc(NC(=O)CC2S/C(=N\S(=O)(=O)c3ccccc3)N(c3ccccc3)C2=O)c1 (stereo not given),inactive: -0.523%,–
NC(=O)c1cc(C(=O)c2cccc(Cl)c2Cl)c[nH]1,inactive: 9.67%,–
COc1ccc(CCNC(=O)C2CCN(C(=O)c3ccccc3C)CC2)cc1,inactive: 5.58%,–
CC(C)CNC(=O)c1oc2ccccc2c1COc1ccccc1,inactive: -1.37%,–
CCCC(=O)N1CCCC1(C)C(=O)Nc1cc(C)ccc1C (stereo not given),inactive: 9.82%,–
Cn1c(=O)n(C)c2cc(S(=O)(=O)Nc3ccccc3)ccc21,inactive: -2.25%,–
CCOC(=O)N1CCC(N2CCN(S(=O)(=O)c3ccc(OC)cc3)CC2)CC1,inactive: 6.47%,–
COc1ccc(OC)c(CNC(=O)C2CCN(S(C)(=O)=O)CC2)c1,inactive: 17.5%,–
CC(NC(=O)Nc1ccccc1)C(c1ccccc1)N1CCOCC1 (stereo not given),inactive: 13.2%,–
Cc1ccc(C)c(Cn2c(=O)n(CCC(=O)NCc3ccc4c(c3)OCO4)c(=O)c3sccc32)c1,inactive: 4.44%,–
COc1ccccc1N1CCN(C2CCN(C(=O)COc3cccc(C)c3)CC2)CC1,inactive: -0.204%,–
CCOC(=O)c1c(-c2ccccc2)csc1NC(=O)c1cc(-c2ccccc2OC)on1,inactive: -2.18%,–
CCOC(=O)c1c(-c2ccccc2)oc2ccc(OC(C)C(=O)O)cc12 (stereo not given),inactive: 2.17%,–
CCOC(=O)CNC(=O)c1cc(OC)cc(OC)c1,inactive: -13.3%,–
CCC(=O)N1CCCC(C)(C(=O)NS(=O)(=O)c2cccs2)C1 (stereo not given),inactive: -1.81%,–
CCCCCCC1CCC(C(=O)N2CCOCC2)CC1 (stereo not given),inactive: 1.53%,–
Cc1cccn2c(=O)c(/C=N/O)c(Nc3ccccc3F)nc12,inactive: -3.17%,–
C/C(=N\N1CCN(c2ccc(Cl)cc2)CC1)c1cccc([N+](=O)[O-])c1,inactive: -0.715%,–
